# From paper PMC4336329 (PLoS ONE, 2015)
# In all, about 310,000 compounds went through this assay and about 14,000 (4.5%) showed an effect of 50% or more. Effects have a minus sign here. This is one part of the list.
# Biological target: human ether-à-go-go-related gene (hERG) potassium channel (human, UniProt Q12809)
# Test: primary screen, population patch clamp on CHO cells stably expressing hERG
# 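Also: peak tail current of the secondary pulse compared with the same well before compound.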
# Chain of human ether-à-go-go-related gene (hERG) potassium channel (Q12809 whole entry, looked up): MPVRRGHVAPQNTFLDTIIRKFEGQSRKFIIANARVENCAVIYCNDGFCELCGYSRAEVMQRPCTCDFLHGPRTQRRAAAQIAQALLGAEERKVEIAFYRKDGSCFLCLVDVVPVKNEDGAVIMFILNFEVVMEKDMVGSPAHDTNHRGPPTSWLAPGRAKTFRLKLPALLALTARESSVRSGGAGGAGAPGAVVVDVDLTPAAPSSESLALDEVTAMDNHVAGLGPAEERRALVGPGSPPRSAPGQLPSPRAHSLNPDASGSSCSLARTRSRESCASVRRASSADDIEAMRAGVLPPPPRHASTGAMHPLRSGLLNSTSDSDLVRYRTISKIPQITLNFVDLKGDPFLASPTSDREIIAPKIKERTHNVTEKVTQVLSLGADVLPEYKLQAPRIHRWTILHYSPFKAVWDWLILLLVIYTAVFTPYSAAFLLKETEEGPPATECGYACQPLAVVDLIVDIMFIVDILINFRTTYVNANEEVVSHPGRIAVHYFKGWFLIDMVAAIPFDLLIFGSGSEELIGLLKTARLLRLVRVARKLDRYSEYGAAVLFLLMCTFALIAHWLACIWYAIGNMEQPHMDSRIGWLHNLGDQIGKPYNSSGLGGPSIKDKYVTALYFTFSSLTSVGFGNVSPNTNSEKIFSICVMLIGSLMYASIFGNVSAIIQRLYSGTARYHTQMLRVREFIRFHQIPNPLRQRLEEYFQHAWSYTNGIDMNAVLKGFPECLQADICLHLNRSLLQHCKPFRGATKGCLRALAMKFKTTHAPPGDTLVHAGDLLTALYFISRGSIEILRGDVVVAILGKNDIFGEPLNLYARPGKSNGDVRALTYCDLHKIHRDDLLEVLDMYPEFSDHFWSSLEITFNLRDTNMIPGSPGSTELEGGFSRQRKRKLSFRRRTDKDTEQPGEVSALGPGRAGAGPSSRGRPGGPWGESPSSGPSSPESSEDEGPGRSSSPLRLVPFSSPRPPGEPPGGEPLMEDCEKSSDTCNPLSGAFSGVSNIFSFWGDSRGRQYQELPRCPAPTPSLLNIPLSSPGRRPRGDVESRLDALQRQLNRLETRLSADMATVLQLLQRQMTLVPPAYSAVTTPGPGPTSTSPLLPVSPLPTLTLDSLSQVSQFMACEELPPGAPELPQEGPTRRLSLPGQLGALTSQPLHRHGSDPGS
row,SMILES,"hERG current change (%, negative = inhibition) at 10uM [%]"
1,CCOC(=O)Nc1sc2c(c1C(N)=O)CCC(C)C2 (stereo not drawn),16.4
2,COc1ccccc1CCNCc1ccc(OC)c(OC)c1OC.O=C(O)C(=O)O,15.5
3,Cc1c(NC(=O)C(C)Oc2ccccc2F)c(=O)n(-c2ccccc2)n1C (stereo not drawn),10.6
4,Cc1cc(Cl)ccc1NC(=S)N1CCC(C(N)=O)(N2CCCCC2)CC1,-2.06
5,O=C(Nc1ccc(S(=O)(=O)Nc2ncccn2)cc1)c1cc([N+](=O)[O-])ccc1Cl,27.9
6,COCCCNS(=O)(=O)c1cccc(S(=O)(=O)c2cccc(S(=O)(=O)NCCCOC)c2)c1,4.92
7,Cn1c(SCC(=O)NCCc2ccccc2)nc2c([nH]c3ccccc32)c1=O,26.4
8,Cc1ccc(OCC(=O)N/N=C/c2cccc3cccnc23)cc1,8.18
9,Cc1ccc(NS(=O)(=O)c2cc(C(=O)NCc3ccccn3)ccc2Cl)cc1C,-47
10,COc1cccc(N2[C@@H](CC(C)=O)c3ccccc3S2(=O)=O)c1,-2.64
11,COc1cc(/C=N\NC(=O)c2nonc2N)c(OC)cc1Br,18.5
12,Cc1nn2c(NCCN(C)C)c3c(nc2c1-c1ccccc1)CCC3,-26.7
13,COc1cccc(NC(=O)c2ccc(C(=O)c3ccccc3)o2)c1,-6.25
14,CCCCNC(=O)CCc1nc2cccnc2n1Cc1ccc(OC)cc1,-18.1
15,C=CC(=O)NC(NC(=O)C=C)c1ccccc1F,6.81
16,COc1ccc(C(=O)O)cc1S(=O)(=O)N(C)CCc1cccnc1,9.95
17,CC(C)(C)c1ccc(OCC(=O)NNC(=O)c2cccnc2)cc1,-34.7
18,CC1CN(Cc2nc3c(c(=O)n(C)c(=O)n3C)n2CCc2ccccc2)CC(C)O1 (stereo not drawn),-16.6
19,CCn1c(=O)cc(OCC(=O)NC(C)c2ccc3c(c2)OCCO3)c2ccccc21 (stereo not drawn),-4.48
20,CC(C)(C)C(=O)Nc1ccc(C(=O)OC2CCCCC2)cc1,-12.2
21,COC(=O)C1=C(c2ccc(F)cc2OCc2ccccc2)C[C@@H]2CC[C@H]1N2C,-52
22,Nc1nc(-c2sc3nc4c(cc3c2N)CCCC4)nc(N2CCOCC2)n1,27.1
23,CCOC(=O)Cn1cc(C#N)c(=O)[nH]c1=O,-17.8
24,Cc1cc(N2CCN(C)CC2)nc2ccc(NC(=O)CCC(=O)N3CCN(c4ccc([N+](=O)[O-])cc4)CC3)cc12,17.9
